Among all 410,000 compounds or so, about 6,400 (1.6%) were called active. The shares of active, inactive and inconclusive entries below differ from those in the screen. Calls follow the shape of the dose curve; as a rule, active = well fitted inhibition curve with a large enough effect; inconclusive = small, poorly fitted or top-dose-only effect; inactive = no such curve, though single readings can be large or run the other way. No potency is given beside an inconclusive call; the fits are too rough.
target: Glucagon-like peptide 1 receptor (Homo sapiens) (UniProt P43220); experiment: qHTS of GLP-1 Receptor Inverse Agonists (Inhibition Mode); conditions: HEK293 GLP-1R CRE-luciferase, luminescence, 24 h, GLP-1R form is constitutively active; activity change, negative = inhibition: at 38.3 µM (top of the series) unless noted; also: nearly all actives have a fitted effect of over 55% in size
UniProt P43220, sequence (P43220 whole entry, looked up): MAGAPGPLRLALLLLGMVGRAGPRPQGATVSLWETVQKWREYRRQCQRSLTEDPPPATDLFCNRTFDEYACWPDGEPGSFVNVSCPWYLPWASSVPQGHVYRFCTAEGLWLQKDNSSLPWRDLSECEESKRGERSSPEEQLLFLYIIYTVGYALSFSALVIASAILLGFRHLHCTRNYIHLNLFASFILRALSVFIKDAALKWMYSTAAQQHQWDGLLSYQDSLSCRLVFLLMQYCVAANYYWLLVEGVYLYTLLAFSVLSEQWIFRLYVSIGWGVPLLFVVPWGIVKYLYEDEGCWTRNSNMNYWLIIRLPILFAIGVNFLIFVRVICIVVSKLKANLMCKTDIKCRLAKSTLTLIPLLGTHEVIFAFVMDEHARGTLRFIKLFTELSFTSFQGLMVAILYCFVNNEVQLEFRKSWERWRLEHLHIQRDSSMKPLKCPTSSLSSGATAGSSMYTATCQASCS
In short: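 Assay principle: reduced luminescence from a cAMP-responsive reporter in HEK293 cells co-expressing a constitutively active GLP-1R. Conditions: 24 hr compound incubation, 37 deg C, 5% CO2.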
% is scaled to controls: 0 for no effect and ±100 for the full control effect; potency is read from the fitted curve at half-maximal effect; tags tell the direction and shape of the fitted curve.

SMILES | activity change, negative = inhibition | Potency
CCCn1nc(NC(=O)c2cccc(Cl)c2)c2cc3cccc(C)c3nc21 | inactive: 6.12% | –
COc1cc(-c2noc(C)c2C#Cc2ccc(N)cc2)cc(OC)c1OC | – | inconclusive [inhibitor, full curve, poor fit]
Cc1ccc(S(=O)(=O)NC(=O)C2(C)CCN2C(=O)C2(c3ccc(Cl)cc3)CC2)cc1 (configuration not stated) | – | inconclusive [inhibitor, single point]
Cc1cccc(OCC(=O)Nc2cc(S(=O)(=O)N3CCOCC3)ccc2N2CCCC2)c1C | – | inconclusive [inhibitor, single point]
CCc1cccc(CC)c1NC(=S)NC(C)c1ccccc1 (configuration not stated) | – | inconclusive [inhibitor, single point]
CN(CC(=O)Nc1cccc(F)c1)C(=O)c1ccc(N2CCCC2)c([N+](=O)[O-])c1 | – | inconclusive [inhibitor, partial curve, poor fit]
COc1cc(OC)cc(C(=O)Nc2ccc3c(c2)OCCO3)c1 | – | inactive
Cc1cccc(NC(=O)CSCC(=O)N2CCN(Cc3ccc4c(c3)OCO4)CC2)c1 | – | inconclusive [inhibitor, partial curve, poor fit]
CC(C)CCN(C(=O)Nc1ccc(Cl)cc1)C1CCN(C(C)C)CC1 | – | inconclusive [inhibitor, partial curve, poor fit]
COc1ccc([C@H]2CC(=O)C=C(c3ccc(Cl)c(C(F)(F)F)c3)C2)cc1OC | – | inconclusive [inhibitor, single point]
CN(C)c1ccc(C=c2c3ccccc3n3c2c2ccccc2[n+]3C)cc1 | – | inconclusive [inhibitor, full curve, poor fit]
CC(NC(=O)c1cc2ccccc2o1)c1ccccc1 (configuration not stated) | – | inconclusive [inhibitor, single point]
Cc1ccc(-n2c(SCC(=O)NCCC3=CCCCC3)nc3n[nH]c(C)c3c2=N)cc1Cl | – | inconclusive [inhibitor, partial curve, poor fit]
CCC(C(=O)NCc1cccc(Br)c1)n1nc(C)c2c(C)n(-c3ccccc3)nc2c1=O (configuration not stated) | – | inconclusive [inhibitor, single point]
Cc1ccc(C(=O)OCC(=O)N2CCOCC2)c(C)c1 | inactive: 3.63% | –
CCCCC(=O)OCC(=O)N1N=C(c2c[nH]c3ccccc23)C(O)C1c1ccc(OC)cc1 (configuration not stated) | – | inconclusive [inhibitor, partial curve, poor fit]
O=S(=O)(Nc1cccc(F)c1)c1ccc2[nH]c3c(c2c1)CCCCC3 | – | inconclusive [inhibitor, partial curve, poor fit]
